In the supplement of paper PMC10126150 one finds switch fluorescence ratio data, which are given here for 67 sequences.

The data set deals with ATP. Put plainly: switch fluorescence ratio, 500 uM ATP over buffer (Cy3 cluster intensity, sum of 5 cycles each) (fold (ratio)); higher = stronger signal-on switching upon ATP binding; sequences stand for … in TCGTCGGCAGCGTCAGATGTGTATAAGAGACAGTTTTTTTTTTTTTTTTTTTTTTTTT…TC. As to conditions: aptamer strand: ATP DNA aptamer (quencher-CACCTGGGGGAGTATTGCGGAGGAAGG + anchor), 100 nM annealed; ATP concentration: 500 uM; one replicate. An outline of the steps:
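The quencher-labelled ATP aptamer, at 100 nM, was annealed to Cy3-labelled switching-strand clusters on a modified Illumina MiSeq flow-cell. The clusters were imaged in selection buffer, then after 15 min with 500 uM ATP at 22 °C, and this buffer/ATP cycle ran five times with NaOH stripping and re-annealing between runs. Per-cluster fluorescence ratios, summed target-cycle over summed buffer-cycle Cy3 intensity, were averaged per switch-domain sequence. Clusters outside 100-1000 RFU were excluded.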

Sequences with one replicate were seen in a single cluster, so their values are uncertain.
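Also: ATP exposure 15 min at 22 °C before imaging.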

Take ATCATCGTGG: the switch fluorescence ratio stood at 0.992. Consider TACGTCGGTA, for which the switch fluorescence ratio is 0.995. The value for TTAGTCCTAT was 0.949; that for CTCAGGAGTC was 1.11; that for GTTATCGGGA was 0.965. With AATCAGTGAG, the switch fluorescence ratio turned out to be 1.02. Then GAATTCATCT, with 1; and GACCTTTTGT, with 1.05; and TTTGCCAAGT, with 1.01.

For CGGAAAGTAC, the switch fluorescence ratio is 1.38. The value for TTAACTTATA was 1.03. Then GCGTACCTGT, with 0.994; and CTAATCGAAA, with 0.974. As to AAGTTGGAG, the switch fluorescence ratio was found to be 1. Then GAATGCGGTG, with 1.01. The value for ACACACTCTG was 1.23. Then AAAGTTCGAC, with 1.02. Take ATACAGCATT: the switch fluorescence ratio came out at 1.07. The value for CCCTGGGAGA was 0.998; that for GGGCGTACTG was 0.965; that for GGTATTTTGT was 0.988. The value for GACTATATTT was 0.997; that for AGATCTCCAT was 0.989; that for AAGTTATCCA was 1.01. Then CACAGTAGGG, with 1.03; and CGGATCGGGA, with 0.966; and AATCCAAAAA, with 0.981. Take ATGGAAGTCG: the switch fluorescence ratio worked out at 0.943. The value for GCTTTTGCAT was 0.971. Consider TCCTGTTTTG, for which the switch fluorescence ratio is 1.03.

As for CAAACGATTA, the switch fluorescence ratio worked out at 1.06.

Regarding TTCCTTGTT, the switch fluorescence ratio was 0.945.

Regarding CGTTTGTTAG, the switch fluorescence ratio was 1.04. The value for ATGGAGGCAT was 1.01; that for ATAATATGGG was 0.995; that for AATTAAGCTC was 0.98. Then ATCAAAAGTT, with 1.08; and TTTACCGACT, with 1.02; and TCGAACTTGT, with 1.09.

Take CCCGGACGTT: the switch fluorescence ratio is 0.939.

With AACTGTTGGA, the switch fluorescence ratio came to 0.976.

As for AACCCGTAAA, the switch fluorescence ratio is 0.983.

As for TCGCAGTCCA, the switch fluorescence ratio was 1.02.

CGTGTTGACC: the switch fluorescence ratio was determined as 1.06. Take CTTGCTACTC: the switch fluorescence ratio turned out to be 1.98. The value for GCAGAAAAGG was 1.23. Then AAGACCATTC, with 1.05; and CTGATATGTT, with 0.962; and CCTTTTTTT, with 0.973. The value for CAGGCGAGTC was 0.997. Take CGTTTAATTA: the switch fluorescence ratio is 0.99. The value for ATACGGGTGT was 1.06. Then GACTAAGAAG, with 0.967; and AGCTAGAGGG, with 1.03. Then TATATTTGAT, with 0.985; and GTGTATGTAT, with 1.03. Regarding GATAGAGTCC, the switch fluorescence ratio is 1.06. On to CACTCTAACC, for which the switch fluorescence ratio is 1.1. The value for GAGGCAGAGC was 1.11; that for TAATGGTATC was 1.01; that for TTACGGCGCG was 0.985. Then AACCAGAGGT, with 0.999; and CCCTCGTGCG, with 1. Turning to TCCCTTCTGA, the switch fluorescence ratio worked out at 1.07. Consider CACGTTCTAC, for which the switch fluorescence ratio came to 1.15. Then ATATTCCAAG, with 0.972.

With CCGGGGAGTT, the switch fluorescence ratio worked out at 0.984.
